From the supplement of paper PMC12217912
Some of the results follow. The full chains were built here from the parent and the listed change. Values near 0.05 are background.

B1: TEV protease; numbered along this chain (parent)
chain: MGESLFKGPRDYNPISSSICHLTNESDGHTTSLYGIGFGPFIITNKHLFRRNNGTLVVQSLHGVFKVKDTTTLQQHLVDGRDMIIIRMPKDFPPFPQKLKFREPQREERICLVTTNFQTKSMSSMVSDTSCTFPSGDGIFWKHWIQTKDGQCGSPLVSTRDGFIVGIHSASNFTNTNNYFTSVPKNFMELLTNQEAQQWVSGWRLNADSVLWGGHKVFMVKPEEPFQPVKEATQL

Variants of: B1
Experiment: raw area under fraction-flipped curve 0-4 h after induction (AUC4h, not background-subtracted), DNA-recorder readout of cleavage of the substrate (dimensionless); higher = more cleavage of the substrate by the protease variant
Conditions: temperature: 34 °C; time window: 0-4 h after rhamnose induction
Procedure: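 In vivo DNA recorder in E. coli TOP10(DE3) ΔrhaA at 34 °C. Each TEVp single-site mutant (parent TEVp 0) is paired with a single-site variant of the 7-mer TEVs (canonical ENLYFQ|S). The substrate sits between flexible linkers in a Bxb1-sfGFP-TEVs-SsrA fusion, so cleavage stabilises Bxb1 and speeds flipping of a recombination array, read by NGS. The value is the raw area under the fraction-flipped curve over 0-4 h after rhamnose induction (AUC4h), with ≥20 reads per time point. It is not background-subtracted; inactive controls average about 0.047.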
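Note: Bxb1 expression induced with 0.2% (w/v) L-rhamnose at OD600 near 0.5, cultures sampled hourly, flipped fraction per protease–substrate barcode pair counted by paired-end Illumina sequencing.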

Variant	area with substrate ENLYFAS	area with substrate ENLYFCS	area with substrate ENLYFDS	area with substrate ENLYFES	area with substrate ENLYFFS	area with substrate ENLYFGS	area with substrate ENLYFHS	area with substrate ENLYFIS	area with substrate ENLYFKS	area with substrate ENLYFLS	area with substrate ENLYFNS	area with substrate ENLYFPS	area with substrate ENLYFRS	area with substrate ENLYFVS	area with substrate ENLYFWS	area with substrate ENLYFYS	area with substrate ENLYFMS	area with substrate ENLYFSS	area with substrate ENLYFTS
MGESLFKGPRDYNPISSSICHLTNESDGHTTSLYGIGFGPFIITNKHLFRRNNGTLVVQSLHGVFKVKDTTTLQQHLVDGRDMIIIRMPKDFPPFPQKLKFREPQREERICLVTTNFQTKSMSSMVSDTSCTFPSGDGIFWKHWIQTKDGQCGSPLVSTRDGFIVGIHSASNFTNTNNYFTSVPKNFMELLTNQEAQQWVSGWRLNADSVLWGGHKVFEVKPEEPFQPVKEATQL [M219E]	0.0562	0.0641	0.0469	0.0608	0.0672	0.0564	0.0504	0.0537	0.0716	0.0761	0.0599	0.065	0.0605	0.0561	0.0544	0.0543			
MGESLFKGPRDYNPISSSICHLTNESDGHTTSLYGIGFGPFIITNKHLFRRNNGTLVVQSLHGVFKVKDTTTLQQHLVDGRDMIIIRMPKDFPPFPQKLKFREPQREERICLVTTNFQTKSMSSMVSDTSCTFPSGDGIFWKHWIQTKDGQCGSPLVSTRDGFIVGIHSASNFTNTNNYFTSVPKNFMELLTNQEAQQWVSGWRLNADSVLWGGHKVFVVKPEEPFQPVKEATQL [M219V]	0.0611	0.0552	0.0531	0.0682	0.0677		0.0618	0.0535	0.066	0.0628	0.072	0.0545	0.0794	0.046	0.0581	0.0553	0.0617	0.066	0.0595
MGESLFKGPRDYNPISSSICHLTNESDGHTTSLYGIGFGPFIITNKHLFRRNNGTLVVQSLHGVFKVKDTTTLQQHLVDGRDMIIIRMPKDFPPFPQKLKFREPQREERICLVTTNFQTKSMSSMVSDTSCTFPSGDGIFWKHWIQTKDGQCGSPLVSTRDGFIVGIHSASNFTNTNNYFTSVPKNFMELLTNQEAQQWVSGWRLHADSVLWGGHKVFMVKPEEPFQPVKEATQL [N206H]	0.052		0.0515	0.0816	0.0781		0.0563	0.0464	0.0754	0.0545			0.0528		0.0552	0.0594	0.0583	0.0546	0.0562
MGESLFKGPRDYNPISSSICHLTNESDGHTTSLYGIGFGPFIITNKHLFRRNNGTLVVQSLHGVFKVKDTTTLQQHLVDGRDMIIIRMPKDFPPFPQKLKFREPQREERICLVTTNFQTKSMSSMVSDTSCTFPSGDGIFWKHWIQTKDGQCGSPLVSTRDGFIVGIHSASNFTNTNNYFTSVPKNFMELLTNQEAQQWVSGWRLGADSVLWGGHKVFMVKPEEPFQPVKEATQL [N206G]	0.0645			0.0632				0.0615	0.0655		0.0682	0.06		0.0625	0.0539	0.053	0.0826		0.0651
MGESLFKGPRDYNPISSSICHLTNESDGHTTSLYGIGFGPFIITNKHLFRRNNGTLVVQSLHGVFKVKDTTTLQQHLVDGRDMIIIRMPKDFPPFPQKLKFREPQREERICLVTTNFQTKSMSSMVSDTSCTFPSGDGIFWKHWIQTKDGQCGSPLVSTRDGFIVGIHSASNFTNTNNYFTSVPKNFMELLTNQEAQQWVSGWRLNADSVLWGGHKQFMVKPEEPFQPVKEATQL [V217Q]	0.0517	0.0613	0.0542	0.0544	0.0527	0.056	0.0705	0.0578	0.067			0.0585		0.0547	0.046				0.0462
MGESLFKGPRDYNPISSSICHLTNESDGHTTSLYGIGFGPFIITNKHLFRRNNGTLVVQSLHGVFKVKDTTTLQQHLVDGRDMIIIRMPKDFPPFPQKLKFREPQREERICLVTTNFQTKSMSSMVSDTSCTFPSGDGIFWKHWIQTKDGQCGSPLVSTRDGFIVGIHSASNFTNTNNYFTSVPKNFMELLTNQEAGQWVSGWRLNADSVLWGGHKVFMVKPEEPFQPVKEATQL [Q197G]	0.0629	0.065		0.0669	0.0621	0.0568	0.0581	0.0509	0.0594					0.0567	0.0566	0.0712	0.0523	0.0615	0.0478
MGESLFKGPRDYNPISSSICHLTNESDGHTTSLYGIGFGPFIITNKHLFRRNNGTLVVQSLHGVFKVKDTTTLQQHLVDGRDMIIIRMPKDFPPFPQKLKFREPQREERICLVTTNFQTKSMSSMVSDTSCTFPSGDGIFWKHWIQTKDGQCGSPLVSTRDGFIVGIHSASNFTNTNNYFTSVPKNFMELLTNQEAKQWVSGWRLNADSVLWGGHKVFMVKPEEPFQPVKEATQL [Q197K]	0.0479	0.0503	0.0645	0.0604	0.0545		0.0556	0.0655	0.0992		0.0721	0.0518	0.0535	0.0564	0.0601		0.0745		0.0563
MGESLFKGPRDYNPISSSICHLTNESDGHTTSLYGIGFGPFIITNKHLFRRNNGTLVVQSLHGVFKVKDTTTLQQHLVDGRDMIIIRMPKDFPPFPQKLKFREPQREERICLVTTNFQTKSMSSMVSDTSCTFPSGDGIFWKHWIQTKDGQCGSPLVSTRDGFIVGIHSASNFTNTNNYFTSVPKNFMELLTNQEAQQWVSGWRLNADSVLWGGDKVFMVKPEEPFQPVKEATQL [H215D]	0.0584			0.0615	0.073		0.0542	0.0625			0.0635	0.0498	0.0581	0.0576	0.0561		0.0564		0.0385
MGESLFKGPRDYNPISSSICHLTNESDGHTTSLYGIGFGPFIITNKHLFRRNNGTLVVQSLHGVFKVKDTTTLQQHLVDGRDMIIIRMPKDFPPFPQKLKFREPQREERICLVTTNFQTKSMSSMVSDTSCTFPSGDGIFWKHWIQTKDGQCGSPLVSTRDGFIVGIHSASNFTNTNNYFTSVPKNFMELLTNQEAQQWVSGWRLNADSVLWGGWKVFMVKPEEPFQPVKEATQL [H215W]	0.0474	0.0464		0.059	0.0714	0.0567		0.0554	0.0607		0.0617	0.056	0.0476	0.0538	0.0582	0.0455	0.0535	0.0642	0.0597
